Results: ChEMBL document CHEMBL5291721, “A preclinical secondary pharmacology resource illuminates target-adverse drug reaction associations of marketed drugs” (Nat Commun, 2023)

Legend:
Histamine H3 receptor [1] = biological target: T1, Histamine H3 receptor (Homo sapiens, UniProt Q9Y5N1)
[2] = biological target: Beta-1 adrenergic receptor (Homo sapiens, UniProt P08588); format: functional
D(3) dopamine receptor [3] = biological target: T2, D(3) dopamine receptor (Homo sapiens, UniProt P35462)
[4] = biological target: Kappa-type opioid receptor (Homo sapiens, UniProt P41145)
[5] = biological target: Beta-3 adrenergic receptor (Homo sapiens, UniProt P13945)
[6] = biological target: 5-hydroxytryptamine receptor 2C (Homo sapiens, UniProt P28335)
[7] = biological target: T3, Sodium-dependent noradrenaline transporter (Homo sapiens, UniProt P23975)
[8] = biological target: Voltage-dependent N-type calcium channel subunit alpha-1B (Rattus norvegicus, UniProt Q02294); format: functional
[9] = biological target: T4, Sodium-dependent dopamine transporter (Homo sapiens, UniProt Q01959)
[10] = biological target: T3, Sodium-dependent noradrenaline transporter; remark: listed apart in the source
[11] = biological target: Sodium channel protein type 5 subunit alpha (Homo sapiens, UniProt Q14524); format: functional, cell-based
[12] = biological target: Synaptic vesicular amine transporter (Rattus norvegicus, UniProt Q01827); format: functional
[13] = biological target: T4, Sodium-dependent dopamine transporter; remark: listed apart in the source
[14] = biological target: Hydroxycarboxylic acid receptor 2 (Homo sapiens, UniProt Q8TDS4)
Progesterone receptor = Progesterone receptor (Homo sapiens, UniProt P06401); format: functional
[15] = biological target: 5-hydroxytryptamine receptor 2B (Homo sapiens, UniProt P41595); format: functional, cell-based
[16] = biological target: Prostaglandin G/H synthase 1 (Rattus norvegicus, UniProt Q63921); format: functional
Androgen receptor = Androgen receptor (Rattus norvegicus, UniProt P15207); format: functional
[17] = biological target: Sodium-dependent serotonin transporter (Homo sapiens, UniProt P31645)
Mu-type opioid receptor [18] = biological target: T5, Mu-type opioid receptor (Homo sapiens, UniProt P35372)
Histamine H3 receptor [19] = biological target: T1, Histamine H3 receptor; remark: listed apart in the source
Bile salt export pump = Bile salt export pump (Homo sapiens, UniProt O95342); format: functional
[20] = biological target: Alpha-2A adrenergic receptor (Homo sapiens, UniProt P08913)
D(3) dopamine receptor [21] = biological target: T2, D(3) dopamine receptor; remark: listed apart in the source
Adenosine receptor A3 = Adenosine receptor A3 (Homo sapiens, UniProt P0DMS8)
[22] = biological target: 5-hydroxytryptamine receptor 2A (Homo sapiens, UniProt P28223); format: functional, cell-based
Estrogen receptor = Estrogen receptor (Homo sapiens, UniProt P03372)
[23] = biological target: T6, Type-1 angiotensin II receptor (Homo sapiens, UniProt P30556)
[24] = biological target: T6, Type-1 angiotensin II receptor; remark: listed apart in the source
[25] = biological target: Delta-type opioid receptor (Homo sapiens, UniProt P41143)
[26] = biological target: 3',5'-cyclic-AMP phosphodiesterase 4D (Homo sapiens, UniProt Q08499); format: functional
[27] = biological target: cGMP-inhibited 3',5'-cyclic phosphodiesterase 3A (Homo sapiens, UniProt Q14432); format: functional
Mu-type opioid receptor [28] = biological target: T5, Mu-type opioid receptor; remark: listed apart in the source
[29] = biological target: Voltage-gated inwardly rectifying potassium channel KCNH2 (Homo sapiens, UniProt Q12809); format: functional
[30] = biological target: 5-hydroxytryptamine receptor 3A (Homo sapiens, UniProt P46098); format: functional
Also: assay procedure not described here.

CCCCc1oc2ccccc2c1C(=O)c1cc(I)c(OCCN(CC)CC)c(I)c1 [AMIODARONE]
AC50 (Histamine H3 receptor [1]): 2.39 µM | AC50 [2]: 2.9 µM | AC50 (D(3) dopamine receptor [3]): 1.5 µM | AC50 [4]: 9.27 µM | AC50 [5]: 23.9 µM | AC50 [6]: 4.1 µM

O=C1CCc2ccc(OCCCCN3CCN(c4cccc(Cl)c4Cl)CC3)cc2N1 [ARIPIPRAZOLE]
AC50 [7]: 5.67 µM | AC50 [8]: > 10 µM | AC50 [9]: 3.46 µM | AC50 [10]: 1.56 µM | AC50 [11]: > 50 µM | AC50 [12]: 0.0066 µM | AC50 [4]: 18 µM | AC50 [5]: 6.77 µM | AC50 [13]: 0.289 µM | AC50 [14]: > 10 µM

COc1cc(OC)cc(N(CCNC(C)C)c2ccc3ncc(-c4cnn(C)c4)nc3c2)c1 [ERDAFITINIB]
AC50 (Progesterone receptor): > 30 µM | AC50 [15]: > 30 µM | AC50 [16]: > 30 µM | AC50 (Androgen receptor): > 30 µM | AC50 [17]: 2.3 µM

CCN(CC)CC#CCOC(=O)C(O)(c1ccccc1)C1CCCCC1 (stereo unspecified) [OXYBUTYNIN]
AC50 (Mu-type opioid receptor [18]): 23.4 µM | AC50 (Histamine H3 receptor [19]): 24.6 µM | AC50 (Bile salt export pump): 37 µM | AC50 [10]: 3.08 µM | AC50 [20]: 24.5 µM | AC50 (D(3) dopamine receptor [21]): 0.0996 µM | AC50 [13]: 0.0895 µM | AC50 (Adenosine receptor A3): 19.6 µM

[H]/N=C(/N)N/C(=N/[H])NCCc1ccccc1 [PHENFORMIN]
AC50 [22]: > 10 µM

CN1CCN(CCCN2c3ccccc3Sc3ccc(Cl)cc32)CC1 [PROCHLORPERAZINE]
AC50 (Estrogen receptor): > 20 µM

CC(C)NCC(O)COc1cccc2ccccc12 (stereo unspecified) [PROPRANOLOL]
AC50 [23]: 20.6 µM | AC50 [24]: > 100 µM

CCN(Cc1ccncc1)C(=O)C(CO)c1ccccc1 (stereo unspecified) [TROPICAMIDE]
AC50 [25]: > 30 µM | AC50 [26]: > 30 µM | AC50 [27]: > 30 µM | AC50 (D(3) dopamine receptor [3]): > 30 µM | AC50 (Mu-type opioid receptor [28]): > 30 µM | AC50 [29]: > 30 µM | AC50 [6]: > 30 µM | AC50 [30]: > 30 µM
